Here are results for 89 molecules from PubChem BioAssay AID463173 (ICCB-Longwood Screening Facility, Harvard Medical School, 2010).

Each structure is given as a SMILES string. About 1,700 (3.3%) of roughly 52,000 compounds were called active. No stated cut-off is given here; in the data, active means survival mostly below about 52% (no sharp cut-off); inactive means mostly above about 56%. The list shows a part of the results.

For the experiment, the system named is Wild type. The experiment can be described thus: S. aureus survival, RN4220 and DeltatarO strains – OD600, teichoic acid synthesis inhibitors, primary screen (AID 463173). The following applies: S. aureus RN4220 wild type/DeltatarO growth, OD600, 18 h, stronger effect = lower value, screened at 18.75 µg/mL (by protocol).
Regarding `CCN(CC)C(=O)c1sc2c(c1C)c(=O)n(-c1ccc(C)c(C)c1)c(=O)n2Cc1cc(=O)n2ccccc2n1`, the survival was inactive: 91%. The value for `COc1ccc(-c2nc3scc(CCNS(=O)(=O)c4ccc(Oc5ccccc5)cc4)n3n2)cc1OC` was inactive: 129%; that for `Cc1ccsc1CCN1C(=O)N(c2ccccc2)C(=O)C1CC(=O)Nc1ccc(Cl)cc1` (centres undefined) was inactive: 80%. The value for `CC(=O)c1cccc(NC(=O)Nc2sc3nc4n(c(=O)c3c2C)CCC(C)CC4)c1` (centres undefined) was inactive: 85%; that for `CCN(CC)C(=O)c1sc2c(c1C)c(=O)n(Cc1ccccc1)c(=O)n2Cc1ccccc1C` was inactive: 63%. On to `O=C(NN=c1c(=O)c2ccccc2c1=O)c1ccncc1`, for which the survival was inactive: 104%. The value for `Cc1ccc2sc(N(Cc3cccnc3)C(=O)CCS(=O)(=O)c3ccccc3)nc2c1C` was active: 1%; that for `COc1ccc(N2CCN(C(=O)CSc3nc(-c4ccc(C(C)C)cc4)no3)CC2)cc1` was inactive: 71%; that for `O=C(CNC(=O)c1ccccc1)OCc1cc(=O)n2nc(C3CCCCC3)sc2n1` was inactive: 73%.

`Clc1ccc(CN2CCN(c3ncnc4sc5c(c34)CCCC5)CC2)cc1Cl`: the survival was inactive: 94%. As to `COc1ccc(CNC(=O)Cc2c(C(=O)O)c(C)cn2C)cc1`, the survival was inactive: 83%. `O=C(NCc1ccc(F)cc1Cl)c1cc(=O)[nH]c2ccc(S(=O)(=O)N3CCCCC3)cc12`: the survival was inactive: 124%. Regarding `COc1ccc(-c2nc3scc(CCNS(=O)(=O)c4ccc5c(c4)OCCO5)n3n2)cc1OC`, the survival was inactive: 68%. Take `Cc1c(-c2ccccc2)c(=O)oc2ccc(OC(=O)N3CCOCC3)cc12`: the survival is inactive: 78%. Next, `CCOc1ccc(C(=O)Nc2c(C(=O)Nc3ccccc3OC)oc3ccccc23)cc1OCC`: inactive: 91%.

As for `Cc1cc(C)cc(OCCSc2nc3ccc(NC(=O)c4cccs4)cc3s2)c1`, the survival is inactive: 75%. Consider `CC(C)c1nc(NCCO)c2nnn(Cc3ccccc3)c2n1`, for which the survival was inactive: 106%. As for `COC(=O)C1=CNC=C(C(=O)OC)C1c1ccc(Cl)cc1`, the survival was inactive: 112%. For the molecule `O=C(Cn1cc(C(=O)C2CCCCC2)c2ccccc21)Nc1ccccc1Cl`, the survival is inactive: 76%.

Consider `CCOc1ccc(NC(=O)CSC2=Nc3ccccc3C3=NC(CC(=O)NCc4cccs4)C(=O)N23)cc1` (centres undefined), for which the survival was inactive: 81%. Take `COc1cc(-c2cc(OC)c3c(C)oc(C)c3c(=O)c2)ccc1OC(=O)c1ccc(C)cc1`: the survival was inactive: 65%. The value for `COCC(=O)N1CCC(n2nnc3cc(F)ccc32)CC1` was inactive: 95%.

For `COc1ccc2c(C)c(CC(=O)NCCc3ccc(Cl)cc3)c(=O)oc2c1C`, the survival was inactive: 117%. Next, `O=C(CSc1n[nH]c(-c2ccccc2Cl)n1)NCCCc1ccccc1`: inactive: 67%; `Cc1nc(N(C)C2CCCCC2)c2nnn(Cc3ccc(F)cc3)c2n1`: inactive: 103%.

For `CC1=C(c2ccc(C)c(C)c2)S(=O)(=O)N=C1N1CCC(C(=O)NC(C)c2ccccc2)CC1` (centres undefined), the survival is inactive: 71%. Regarding `CCCN(CCC)C(=O)c1cc2c(=O)n3cccc(C)c3nc2s1`, the survival is inactive: 80%. Next, `CC(CCc1ccccc1)NC(=O)Cn1c(=O)nc(-c2ccccc2)c2cc(Cl)ccc21` (centres undefined): inactive: 71%. Next, `CCc1ccc2oc(C(=O)N(Cc3ccc(N(C)C)cc3)Cc3ccco3)c(C)c2c1`: inactive: 88%; `Cc1cc(=O)c2cc(Br)ccc2[nH]1`: inactive: 106%. The value for `Cc1ccc(-c2cn3c(n2)sc2cc(C(=O)NCCCN4CCCCCC4)ccc23)cc1` was active: -1%; that for `COCCNc1c(-c2ccc(OC)c(OC)c2)nc2ccc(Cl)cn12` was inactive: 109%. As to `O=C1c2ccccc2-c2onc3c(N4CCN(C5CCCCC5)CC4)cc(NCCO)c1c23`, the survival was inactive: 81%. Next, `CC(=O)c1cccc(NC(=O)C2CCN(c3ncnc4c3nc3n4CCCCC3)CC2)c1`: inactive: 66%; `O=C(O)c1cc2cc3ccccc3nc2s1`: inactive: 112%. `Cc1ccc(CCNC(=O)C2COc3ccccc3C2)cc1` (centres undefined): the survival is inactive: 88%. As to `Cc1ccc(S(=O)(=O)c2cn(C)c3cc(N4CCOCC4)c(F)cc3c2=O)c(C)c1`, the survival is inactive: 84%. In the case of `COc1ccc(N2CCN(c3ncnc4c3nc3n4CCCCC3)CC2)cc1`, the survival was inactive: 73%.

Take `Oc1c(C(c2ccc(F)cc2)N2CCCC2)sc2nc(-c3ccco3)nn12` (centres undefined): the survival is inactive: 84%. As to `Cc1ccc(Cl)cc1-n1c(=O)c2sc3ccccc3c2n(CC(=O)NC2CCCC2)c1=O`, the survival was inactive: 31%. The value for `Cc1ccc2c(c1)-c1onc(C(=O)N3CCN(c4cc(C)ccc4C)CC3)c1CO2` was inactive: 86%; that for `COc1ccccc1CNS(=O)(=O)c1c(C(=O)N2CCC(C)CC2)c(C)n(C)c1C` was inactive: 73%; that for `Cc1ccc(CCNC(=O)Cn2ncc3c([nH]c4ccccc43)c2=O)cc1` was inactive: 66%.

Consider `COC(=O)C1C(=O)/C(=C/N(C)C)C(=O)CC1(C)C` (centres undefined), for which the survival was inactive: 91%. The value for `N#Cc1cccc(NC(=O)Nc2cccn(Cc3ccccc3)c2=O)c1` was inactive: 110%; that for `Cc1cc(C)n(-c2nc3cc(Cl)ccc3nc2N2CCN(c3cccc(C)c3C)CC2)n1` was active: -1%. The value for `COc1ccc(C)cc1NC(=O)CSc1nc(=O)n(Cc2cccnc2)c2c1CCC2` was inactive: 113%; that for `CCCCCN1C(C(=O)c2ccccc2)=C(NC(=O)c2ccc(OC)c(OC)c2)c2ccccc2S1(=O)=O` was inactive: 88%; that for `O=C(CCn1c(=O)c2cccn2c2ccc(F)cc21)NCCc1ccc(Cl)cc1` was inactive: 78%.

For the molecule `COc1ccc(NC(=O)N2CCC(CN3CCCC3)CC2)c(OC)c1`, the survival is inactive: 64%. `O=C(C1CCCN(S(=O)(=O)c2cccc3nonc23)C1)N1CCN(c2ccccc2F)CC1` (centres undefined): the survival was inactive: 78%. For `Clc1ccc(-c2ccc(CNCCSc3nnnn3-c3ccccc3)o2)cc1`, the survival was inactive: 40%. `COC(=O)c1ccccc1NC(=O)CSc1cc(-c2ccccc2)nc(C)n1`: the survival is inactive: 92%.

Take `CC(=O)c1ccc(N2C(=O)N(Cc3ccc(F)cc3)c3ccccc3S2(=O)=O)cc1`: the survival was inactive: 83%. Next, `CCN1CCN(c2oc(-c3ccc(COc4ccc(OC)cc4)o3)nc2C#N)CC1`: inactive: 75%; `CC(C)(C)OC(=O)N1CCC(c2c(C(=O)NCCN3CCOCC3)cnn2-c2cccc(F)c2)CC1`: inactive: 120%; `COc1ccc(C2(CNC(=O)C(=O)Nc3ccc(C)c(Cl)c3)CCCC2)cc1OC`: inactive: 83%. The value for `CCN(CC)S(=O)(=O)c1nnc(NC(=O)COc2ccccc2)s1` was inactive: 97%; that for `O=C(c1cccs1)N1CCN(C(=O)c2cccs2)CC1` was inactive: 107%; that for `O=C(NCc1cccnc1)C(C(=O)c1ccc(F)cc1)n1ccccc1=O` (centres undefined) was inactive: 116%. With `O=C(NC1CCCC1)C(c1ccccn1)N(C(=O)c1ccc2c(c1)OCCO2)c1ccccc1` (centres undefined), the survival is inactive: 101%. The value for `Clc1cccc(-n2ncc3c(NCCC4=CCCCC4)ncnc32)c1` was inactive: 32%; that for `COc1ccc(OC)c(C(=O)CN2C(=O)N(c3cc(C)cc(C)c3)S(=O)(=O)c3ccccc32)c1` was inactive: 81%; that for `Cc1cc(O)c(C(c2ccc(F)cc2)N2CCN(c3ccccc3)CC2)c(=O)n1Cc1ccco1` (centres undefined) was inactive: 68%. Consider `Cc1ccc(NC(=O)CSc2nnc(C)s2)c(C)c1`, for which the survival is inactive: 79%. Turning to `COc1ccc(NC(=O)C2CCN(c3nc4ccccc4[nH]3)CC2)cc1OC`, the survival was inactive: 53%. Next, `COc1ccc(-c2nc(SCC(=O)NCc3nc4ccccc4n3C)n3[nH]c(=O)cc3n2)cc1`: inactive: 81%; `CCCCN1C(=O)C(NC(=O)c2ccc(C(C)(C)C)cc2)(C(F)(F)F)C(C(=O)OC)=C1C` (centres undefined): inactive: 61%. Regarding `COc1ccc(OC)c(NC(=O)Nc2cccc(OCc3cc(=O)n4cc(C)ccc4n3)c2)c1`, the survival was inactive: 78%. Take `CC(NC(=O)c1cccc(Nc2nc3ccccc3n3nnnc23)c1)c1ccccc1` (centres undefined): the survival was inactive: 127%. For `O=C(CSc1nc2c(c(=O)[nH]1)CCC2)Nc1cccc(O)c1`, the survival was inactive: 81%.

`Cc1ccc(N2CCN(c3ncnc4onc(-c5ccc(F)cc5)c34)CC2)c(C)c1`: the survival was inactive: 69%. The value for `COc1cc(NC(=O)c2c(C)nn(-c3ccc(F)cc3)c2-n2cccc2)cc(OC)c1` was inactive: 70%; that for `COc1ccc(-n2nnnc2C2CCN(S(=O)(=O)c3cc(Cl)ccc3OC)CC2)cc1` was inactive: 81%; that for `CCn1c(=O)c2sccc2n2c(CCCC(=O)Nc3ccc(C)cc3)nnc12` was inactive: 85%. The value for `CCC(C)(C)NC(=O)Cn1nnc(-c2ccc(OC)cc2)n1` was inactive: 108%; that for `COc1ccccc1NC(=O)C(C#N)Cc1cc2cc(C)cc(C)c2[nH]c1=O` (centres undefined) was inactive: 99%. Next, `Cc1ccc(S(=O)(=O)NCCc2nnc3ccc(SCc4cccc(F)c4)nn23)cc1`: inactive: 95%; `N#CC(C#N)C(CC(=O)c1ccccc1)c1ccc2c(c1)OCO2` (centres undefined): inactive: 111%; `N=c1n(CC(N)=O)c2ccccc2n1Cc1ccccc1Cl`: inactive: 109%.

As to `CC(C)CC(=O)Nc1nc2ccc(S(C)(=O)=O)cc2s1`, the survival is inactive: 102%. Next, `COc1ccc(CC(=O)Nc2c(C(=O)N3CCN(c4ccccc4F)CC3)oc3ccccc23)cc1OC`: inactive: 79%; `COc1ccc(-c2nc3ccccc3o2)cc1NC(=O)c1ccc(-c2ccc(C)c(Cl)c2)o1`: inactive: 73%; `CCCN1C2CCCC1CC(NC(=O)c1ccccc1C)C2` (centres undefined): inactive: 108%. The value for `CCOc1ccc(OCC)c(Nc2nc3ccccc3n3nnnc23)c1` was inactive: 89%; that for `Cc1ccc(Nc2c(-c3ccco3)nc3ccc(C)cn23)cc1` was inactive: 110%. With `CCN(C(=O)c1cc2c(=O)oc3ccccc3c2s1)c1cccc(C(F)(F)F)c1`, the survival was inactive: 131%. Consider `COc1ccc(NC(=O)CSC2=Nc3ccccc3C3=NC(Cc4ccccc4)C(=O)N23)cc1` (centres undefined), for which the survival is inactive: 85%. As for `Cc1ccc(CC23CN4CC(CN(C4)C2)C3=O)c(C)c1`, the survival was inactive: 102%.
